Measured values reported in US20040208880A1 (University of Texas, published 2004).

Target: T1, p21-activated protein kinase 1 (Pak1), full-length, amino acids 1-545 (human, UniProt Q13153 1-545)
T1 construct: Used both as in vitro translated 35S-labeled full-length protein and as the endogenous protein of human cell lines
Test: GST pull-down with in vitro translated 35S-labeled Pak1

T1 sequence (Q13153 whole entry A26V/E503D, the tested form may be a part): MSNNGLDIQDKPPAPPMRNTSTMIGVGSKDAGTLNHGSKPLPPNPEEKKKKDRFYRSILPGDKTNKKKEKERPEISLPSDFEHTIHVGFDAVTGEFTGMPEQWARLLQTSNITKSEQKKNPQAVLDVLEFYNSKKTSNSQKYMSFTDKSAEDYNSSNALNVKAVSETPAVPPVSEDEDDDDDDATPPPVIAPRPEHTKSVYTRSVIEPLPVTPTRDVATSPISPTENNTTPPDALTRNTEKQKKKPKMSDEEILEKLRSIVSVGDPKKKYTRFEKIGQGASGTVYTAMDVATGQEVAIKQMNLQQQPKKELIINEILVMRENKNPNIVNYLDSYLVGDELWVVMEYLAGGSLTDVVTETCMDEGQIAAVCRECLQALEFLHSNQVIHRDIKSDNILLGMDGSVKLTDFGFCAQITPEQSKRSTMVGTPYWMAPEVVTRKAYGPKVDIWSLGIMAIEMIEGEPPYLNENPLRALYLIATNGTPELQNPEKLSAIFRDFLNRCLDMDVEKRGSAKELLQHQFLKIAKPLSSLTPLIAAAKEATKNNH

B1: GST (other)
chain: not shown
notes: Negative control in GST pull-down assays; also called glutathione-S-transferase
binding result: no binding
